Test results published in the supplement of paper PMC10126150.
Sequences with one replicate were seen in a single cluster, so their values are uncertain.

System: ATP
Assay: switch fluorescence ratio, 500 uM ATP over buffer (Cy3 cluster intensity, sum of 5 cycles each) (fold (ratio)); higher = stronger signal-on switching upon ATP binding; sequences stand for … in TCGTCGGCAGCGTCAGATGTGTATAAGAGACAGTTTTTTTTTTTTTTTTTTTTTTTTT…TC
Settings: aptamer strand: ATP DNA aptamer (quencher-CACCTGGGGGAGTATTGCGGAGGAAGG + anchor), 100 nM annealed; ATP concentration: 500 uM; one replicate
Outline: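 Values give the fluorescence ratio for each switch-domain sequence, averaged from per-cluster ratios of summed target-cycle to summed buffer-cycle Cy3 intensity. The Cy3-labelled switching-strand clusters sat on a modified Illumina MiSeq flow-cell, were annealed to 100 nM quencher-labelled ATP aptamer, and were imaged in selection buffer, then after 15 min with 500 uM ATP at 22 °C. Five cycles ran with NaOH stripping and re-annealing between them, and clusters outside 100-1000 RFU were excluded.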
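Further: ATP exposure 15 min at 22 °C before imaging.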

Q: GTTCGAGGGT was tested. Which switch fluorescence ratio did it give?
A: 0.986

Q: Which switch fluorescence ratio does the source give for TCCTGTCTGA here?
A: 1.04

Q: How did the switch fluorescence ratio turn out when TGTTATGTTC was run?
A: 1.01

Q: How did the switch fluorescence ratio turn out when GTGGTGACAG was run?
A: 0.996

Q: Which switch fluorescence ratio does the source give for AGGGAACTGA here?
A: 0.968

Q: With CTTAGTTTGA as the sequence, how does the switch fluorescence ratio read?
A: 0.996

Q: How did the switch fluorescence ratio turn out when AGAAAGCGC was run?
A: 1.03

Q: TCTCCTATAT was tested. Which switch fluorescence ratio did it give?
A: 1.69

Q: How did the switch fluorescence ratio turn out when CCGTGCAGCA was run?
A: 1.46

Q: TACTTTGAAA was tested. Which switch fluorescence ratio did it give?
A: 0.959

Q: With AACGTCCCAA as the sequence, how does the switch fluorescence ratio read?
A: 1.71

Q: For TACTTGTGGA, which switch fluorescence ratio is on record?
A: 1.01

Q: Which switch fluorescence ratio does the source give for TGAGGTTGTG here?
A: 1.09

Q: For GCTTAGTAGG, which switch fluorescence ratio is on record?
A: 0.944

Q: How did the switch fluorescence ratio turn out when GCGACAGACT was run?
A: 1.05

Q: For TATAATAATG, which switch fluorescence ratio is on record?
A: 1

Q: For GTCATTTTCA, which switch fluorescence ratio is on record?
A: 0.976

Q: Which switch fluorescence ratio does the source give for CGGAATCTA here?
A: 1.01

Q: TGCCGTCCGA was tested. Which switch fluorescence ratio did it give?
A: 1.01

Q: TTATGCGCAT was tested. Which switch fluorescence ratio did it give?
A: 1.03

Q: With CGTGGGTGG as the sequence, how does the switch fluorescence ratio read?
A: 1.04

Q: For CGTAGGCATC, which switch fluorescence ratio is on record?
A: 1.05

Q: GAAAGCGCCG was tested. Which switch fluorescence ratio did it give?
A: 0.999

Q: Which switch fluorescence ratio does the source give for TAACCTTACC here?
A: 1.57

Q: How did the switch fluorescence ratio turn out when CAACTGGTGG was run?
A: 1

Q: For CCTTTCATCG, which switch fluorescence ratio is on record?
A: 1.25

Q: Which switch fluorescence ratio does the source give for CATCCATTGT here?
A: 0.969

Q: How did the switch fluorescence ratio turn out when TCTTTTAAAC was run?
A: 1.01

Q: Which switch fluorescence ratio does the source give for CAACGGATTG here?
A: 0.973

Q: With GTGGCCTACT as the sequence, how does the switch fluorescence ratio read?
A: 0.972

Q: For GAATTATGTG, which switch fluorescence ratio is on record?
A: 1.01

Q: CTGTCGCACT was tested. Which switch fluorescence ratio did it give?
A: 1.36

Q: For GCCATGTCGG, which switch fluorescence ratio is on record?
A: 0.971

Q: Which switch fluorescence ratio does the source give for CTTTAAGGAG here?
A: 1.01

Q: Which switch fluorescence ratio does the source give for GTTCTGAACG here?
A: 1.06

Q: CAAACTTTGA was tested. Which switch fluorescence ratio did it give?
A: 1.03

Q: How did the switch fluorescence ratio turn out when TCATTTAGAC was run?
A: 1.03

Q: How did the switch fluorescence ratio turn out when TAAATTTGGA was run?
A: 0.994

Q: With TCGTGTCGTA as the sequence, how does the switch fluorescence ratio read?
A: 0.972

Q: GATCCCAGCA was tested. Which switch fluorescence ratio did it give?
A: 1

Q: How did the switch fluorescence ratio turn out when TAATCCAGG was run?
A: 1.24

Q: How did the switch fluorescence ratio turn out when TTTGTTTCGG was run?
A: 0.947

Q: Which switch fluorescence ratio does the source give for TCCTAATAAT here?
A: 1.01

Q: With TAGATGATTC as the sequence, how does the switch fluorescence ratio read?
A: 1.02

Q: For GGTCTTGGAA, which switch fluorescence ratio is on record?
A: 0.981

Q: CCGAAAACCC was tested. Which switch fluorescence ratio did it give?
A: 1.12

Q: With AACGCACGTA as the sequence, how does the switch fluorescence ratio read?
A: 1.2

Q: TAAAGTTGA was tested. Which switch fluorescence ratio did it give?
A: 0.989

Q: For AATCATCGAC, which switch fluorescence ratio is on record?
A: 1.01

Q: With CGCAGCAGCT as the sequence, how does the switch fluorescence ratio read?
A: 2.11

Q: With CCAGGTCCGG as the sequence, how does the switch fluorescence ratio read?
A: 0.99

Q: TGGGCAGGTC was tested. Which switch fluorescence ratio did it give?
A: 0.97

Q: How did the switch fluorescence ratio turn out when CTGCCAGCGT was run?
A: 1.04

Q: With GATCGGGAAG as the sequence, how does the switch fluorescence ratio read?
A: 1.01

Q: How did the switch fluorescence ratio turn out when ATTATTTGGC was run?
A: 1.11

Q: How did the switch fluorescence ratio turn out when TCTTGGACGT was run?
A: 0.993

Q: How did the switch fluorescence ratio turn out when TTTTTCGCGA was run?
A: 1.01

Q: GAGCGCTAGA was tested. Which switch fluorescence ratio did it give?
A: 1.04

Q: With CCTGAAAATA as the sequence, how does the switch fluorescence ratio read?
A: 1.01

Q: With TTTCCACCGC as the sequence, how does the switch fluorescence ratio read?
A: 1.41

Q: How did the switch fluorescence ratio turn out when GGGCAGACCC was run?
A: 0.955

Q: For TACGCATTCA, which switch fluorescence ratio is on record?
A: 1.21

Q: TAATTCTATA was tested. Which switch fluorescence ratio did it give?
A: 1.01

Q: With TATAGGCGGA as the sequence, how does the switch fluorescence ratio read?
A: 1.03

Q: Which switch fluorescence ratio does the source give for CGAAATAGTG here?
A: 1.03

Q: How did the switch fluorescence ratio turn out when TTAAACCAAG was run?
A: 1.12

Q: Which switch fluorescence ratio does the source give for CAAAAGTCCA here?
A: 0.959

Q: With GGAGTACGGA as the sequence, how does the switch fluorescence ratio read?
A: 1.04

Q: How did the switch fluorescence ratio turn out when GCAGATAGGA was run?
A: 1.04

Q: Which switch fluorescence ratio does the source give for GTGACTAGAG here?
A: 1.05

Q: AACGCGTCGC was tested. Which switch fluorescence ratio did it give?
A: 0.976

Q: TATAACTGTT was tested. Which switch fluorescence ratio did it give?
A: 1.13

Q: CGTAACTTTT was tested. Which switch fluorescence ratio did it give?
A: 0.925

Q: GGCGCACAGA was tested. Which switch fluorescence ratio did it give?
A: 0.996

Q: TGAAGTATTA was tested. Which switch fluorescence ratio did it give?
A: 0.999

Q: For ACTTATGTCC, which switch fluorescence ratio is on record?
A: 1.05

Q: Which switch fluorescence ratio does the source give for GCCTCATAGA here?
A: 1.03

Q: Which switch fluorescence ratio does the source give for GCATGTATCG here?
A: 0.976

Q: CCCGGCAGTC was tested. Which switch fluorescence ratio did it give?
A: 1.79

Q: For CTTTAGGGAG, which switch fluorescence ratio is on record?
A: 1.01

Q: ACAGCTGCTG was tested. Which switch fluorescence ratio did it give?
A: 1.03

Q: Which switch fluorescence ratio does the source give for AGTAGCGAGT here?
A: 1.01

Q: With CGTTCTGCAC as the sequence, how does the switch fluorescence ratio read?
A: 1.34

Q: CAAGTAGGAT was tested. Which switch fluorescence ratio did it give?
A: 1.01

Q: CGAATTTGGC was tested. Which switch fluorescence ratio did it give?
A: 1.01
